From PubChem BioAssay AID1159614 (National Center for Advancing Translational Sciences (NCATS), 2016) come the findings set out here.

Out of some 45,000 compounds screened, about 65 (0.1%) were called active. The call rests on the fitted dose curve; in most records, active means well fitted activation curve with a large enough effect; inconclusive means small, poorly fitted or top-dose-only effect; inactive means no such curve, though single readings can be large or run the other way. This is one part of the list.

For the assay, the target named is Galactocerebrosidase (Homo sapiens) (UniProt P54803). Nature of the assay: A Novel Cell-Based Assay to Identify Small Molecules for B -Galactocerebrosidase. Further: 0% is about no effect; nearly all actives have a fitted effect of over 65% in size. Conditions: 145M-Twi-hGALC-G270D cells, HMU-beta-Gal fluorescence, 48 h; series mostly up to 57.5 µM; activation: at the top concentration. An outline of the steps: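 qHTS, 1536-well; 145M-Twi-hGALC-G270D cells (WT line also made) in DMEM/F12 + 10% FBS; compound incubation on live cells; HMU-β-gal 0.1 mM final, pH 5.2, NaTC; carbonate stop; fluorescence increase = enhanced residual activity.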
UniProt P54803, sequence (P54803 whole entry, looked up): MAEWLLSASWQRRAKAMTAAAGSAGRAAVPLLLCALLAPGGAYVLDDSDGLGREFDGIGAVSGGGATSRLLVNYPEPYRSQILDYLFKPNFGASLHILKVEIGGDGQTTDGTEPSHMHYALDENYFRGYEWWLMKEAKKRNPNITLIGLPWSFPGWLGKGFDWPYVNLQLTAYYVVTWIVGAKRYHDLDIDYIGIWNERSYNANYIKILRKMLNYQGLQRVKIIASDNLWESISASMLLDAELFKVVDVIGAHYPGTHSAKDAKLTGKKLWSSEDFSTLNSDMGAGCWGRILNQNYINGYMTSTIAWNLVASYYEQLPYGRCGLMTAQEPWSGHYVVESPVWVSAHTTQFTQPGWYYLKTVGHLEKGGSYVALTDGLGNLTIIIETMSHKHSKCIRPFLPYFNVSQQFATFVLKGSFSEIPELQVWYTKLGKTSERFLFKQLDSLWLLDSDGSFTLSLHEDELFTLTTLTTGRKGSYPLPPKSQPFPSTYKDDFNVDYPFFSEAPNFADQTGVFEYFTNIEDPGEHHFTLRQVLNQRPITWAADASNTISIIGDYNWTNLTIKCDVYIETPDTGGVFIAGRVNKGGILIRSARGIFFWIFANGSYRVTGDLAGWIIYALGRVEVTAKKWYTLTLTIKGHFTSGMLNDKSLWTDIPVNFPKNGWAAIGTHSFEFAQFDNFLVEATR
In the case of `COc1ccc(-n2c(=O)c3c4c(sc3n(Cc3ccccc3)c2=O)CN(C(C)=O)CC4)cc1OC`, the “activation” value is inactive: -1.01%. Still for that read-out and setting: the value for `CC(=O)OCc1cnc(C)c2oc(=O)c(C(=O)Nc3cccc(F)c3)cc12` was inactive: -6.83%; that for `COc1cc(Cl)c(C)cc1NC(=O)c1cc2ccc3cccnc3c2[nH]1` was inactive: -29.1%; that for `O=C(c1cc(=O)c2cc(Cl)ccc2o1)N(Cc1ccccc1)C1CCS(=O)(=O)C1` (centres undefined) was inactive: -13.9%. The same measure, in the same setting: the value for `COc1ccc(Cl)cc1-n1nnc(-c2nc(-c3ccc4c(c3)OCO4)no2)c1C` was inactive: -8.21%. For `CCCNC(=O)C1CCC(Cn2c(=O)c3sccc3n(Cc3ccccc3C)c2=O)CC1` (centres undefined), the “activation” value is inactive: -2.32%.

As for `COc1ccc(NC(=O)CSc2nc3nc(C)c(Cc4ccc(C)cc4)c(C)n3n2)cc1OC`, the “activation” value is inactive: -8.79%. On the same count and under the same terms, with `COc1cc2[nH]c(=O)n(Cc3ccc(C(=O)NCc4ccccc4)cc3)c(=O)c2cc1OC` the figure was inactive: -12.2%; with `Cc1nc(N2CCCC2)c2c(C(=O)Nc3cccc(Cl)c3C)c(C)oc2n1`, inactive: 4.82%.

In the case of `Cc1ccc(-n2ncc3c(NCCCc4ccccc4)ncnc32)cc1`, the “activation” value is inactive: -7.5%. On the same count and under the same terms, the value for `CCc1ccc(NC(=O)c2cc(S(=O)(=O)N3CCCCCC3)ccc2F)cc1` was inactive: -23.9%; that for `Cc1ccc(NC(=O)Nc2nnc(SCC(=O)Nc3ccc(F)cc3F)s2)cc1` was inactive: -9.03%. Consider `Cc1cccc(C)c1NC(=O)c1csc2c1CCCC2`, for which the “activation” value is inactive: -10.6%. On the same count and under the same terms, the value for `COc1ccccc1NC(=O)C(=O)c1cc(C)n(-c2ccccc2F)c1C` was inactive: -5.67%. On the same count and under the same terms, with `O=C(NCCCc1nc2ccccc2n1Cc1cccc(Cl)c1)c1ccco1` the figure was inactive: -25.3%; with `Cc1ccc(-n2ncc3c(NCCCN4CCOCC4)ncnc32)cc1Cl`, inactive: -16%; with `CCCCN1CC(c2nc3ccccc3n2CCCCOc2ccc(C)cc2C)CC1=O` (centres undefined), inactive: -38.8%. Regarding `O=C(NCCn1cc(SCc2ccc(F)cc2)c2ccccc21)c1c(F)cccc1F`, the “activation” value was inactive: -12%. `Cc1ccc(C2c3c(-c4ccccc4O)n[nH]c3C(=O)N2CCCO)cc1` (centres undefined): the “activation” value was inactive: -20.6%. The same measure, in the same setting: with `CCOC(=O)c1cccc(NC(=O)c2ccc3c(c2)nnn3C2CCCC2)c1` the figure was inactive: 0.619%; with `COc1cc(C(=O)NC2CCCNC2)cc(OC)c1OC` (centres undefined), inactive: -3.76%. Still for that read-out and setting: with `Cn1nnnc1SCCNCc1ccccc1OCc1ccccc1F` the figure was inactive: 5.62%; with `Cc1ccc(Cn2c(C(=O)Nc3cccc(Cl)c3)cc3sccc32)cc1`, inactive: -21.4%. Still for that read-out and setting: with `Cn1cnc(S(=O)(=O)N2CCCC(C(=O)Nc3ccc(F)cc3Cl)C2)c1` (centres undefined) the figure was inactive: -12.2%; with `CSc1ncc(Cl)c(C(=O)Nc2ccc(S(=O)(=O)N3CCC(C)CC3)cc2)n1`, inactive: -17.3%.

With `CCCCc1cc(=O)oc2cc(C)c3c(C)coc3c12`, the “activation” value was inactive: -19.7%.

On to `COc1cccc(CNC(=O)C2CCN(c3nc4ccc(Cl)cc4[nH]3)CC2)c1`, for which the “activation” value was inactive: -4.76%.

For the molecule `CCc1ccc(OCCCSc2nc(-c3ccc(C(C)(C)C)cc3)nc3cc(=O)[nH]n23)cc1`, the “activation” value is inactive: -38.1%. Still for that read-out and setting: with `COC(=O)c1ccc(NS(=O)(=O)c2ccc(-n3cccn3)cc2)cc1` the figure was inactive: -2.94%. Still for that read-out and setting: with `CC(=O)c1ccc(N2CCN(S(=O)(=O)c3ccc4c(c3)CC(C)N4C(=O)C3CCC3)CC2)cc1` (centres undefined) the figure was inactive: -14.7%; with `COc1ccc2c(c1)CC(NC(=O)Nc1cc(Cl)ccc1OC)CO2` (centres undefined), inactive: -13.4%; with `COc1cccc(C(=O)Nc2ccc(Cl)c(-c3nc4ccccc4[nH]3)c2)c1`, inactive: -19%. The same measure, in the same setting: with `CSc1nc(C)cc(Nc2c(C)cc(C)cc2C)n1` the figure was inactive: -8.4%; with `Cc1ccccc1NC(=O)c1ccc2nc(Cc3ccccc3)oc2c1`, inactive: -28.1%; with `CC(=O)c1ccc(NS(=O)(=O)c2cc(-c3cnc(C4CC4)o3)ccc2C)cc1`, inactive: 1.61%. Turning to `Cc1ccc(S(=O)(=O)c2cn(C)c3cc(N4CCCCCC4)c(F)cc3c2=O)cc1`, the “activation” value was inactive: -11.7%. On the same count and under the same terms, the value for `O=C(CCSCc1cnn(-c2ccccc2)c1-n1cccc1)NCc1ccccc1F` was inactive: -10.8%; that for `CCOc1ccc(NC(=O)c2cc3c(-c4ccccc4F)nn(C)c3s2)cc1` was inactive: -10.6%. In the case of `Cn1c(SCc2ccc(F)cc2)nc2c([nH]c3ccccc32)c1=O`, the “activation” value is inactive: -0.221%. For `Cc1ccc(Cn2c(=O)n(-c3ccccc3)c(=O)c3ccc(C(=O)NCc4ccco4)cc32)cc1`, the “activation” value is inactive: -13.6%. The same measure, in the same setting: with `C=Cc1ccc(Cn2c(C(=O)O)c(CNCc3cccs3)c3ccc(C)cc32)cc1` the figure was inactive: -8.52%. For the molecule `COc1ccccc1C(=O)Nc1c(C(=O)N(CCN(C)C)Cc2ccco2)oc2ccccc12`, the “activation” value is inactive: -21.9%. Regarding `COc1ccc(OCC2c3cc(OC)c(OC)cc3CCN2C(=O)c2ccc(F)cc2)cc1` (centres undefined), the “activation” value is inactive: -23.2%. Still for that read-out and setting: with `CCN(CC)CCNC(=O)c1sc2nc3n(c(=O)c2c1C)CCCCC3` the figure was inactive: -7.87%; with `COc1ccc(C(=O)Nc2cc(-c3cccc(C)c3)nn2-c2ccccc2)cc1`, inactive: -12.9%; with `Cc1ccc(-c2cn3c(n2)sc2cc(C(=O)NCCCN4CCCCC4)ccc23)cc1`, inactive: 8.06%. Same read-out and setting: with `COc1ccc2cc3cc(C(=O)N4CCN(c5ccc(C(C)=O)cc5)CC4)sc3nc2c1Cl` the figure was inactive: -22.4%; with `CCOC(=O)c1c(C)oc2nc(C)nc(N3CCN(c4ccc(C(C)=O)cc4)CC3)c12`, inactive: -13.8%; with `COc1cccc(C(=O)N(Cc2sccc2C)C2CCS(=O)(=O)C2)c1` (centres undefined), inactive: 1.54%.

Turning to `CC(C)(C)OC(=O)N1CCC(c2c(C(=O)NCc3ccc(F)cc3)cnn2-c2ccc(F)cc2)CC1`, the “activation” value was inactive: 1.6%. The same measure, in the same setting: with `Cc1cc(NC(=O)Cn2c(=O)nc(-c3ccccc3F)c3cc(Cl)ccc32)ccc1Br` the figure was inactive: 0.172%; with `O=S(=O)(NCCc1csc2nc(-c3ccc(F)cc3)nn12)c1ccc(Br)cc1`, inactive: -12.7%; with `CCOC(=O)c1ccc(NC(=O)c2c(NCc3cccs3)sc3c2CCCCC3)cc1`, inactive: -10.7%. The same measure, in the same setting: the value for `CCCC(=O)O[C@]1(C(=O)CC)CC[C@H]2[C@@H]3CCC4=CC(=O)CC[C@]4(C)[C@H]3[C@@H](O)C[C@@]21C` was inactive: -1.06%; that for `O=S(=O)(NCc1nc2cccnc2n1Cc1ccc(F)cc1)c1ccc2c(c1)CCCC2` was inactive: -2.21%.

As to `CCOC(=O)c1c(N)n(-c2ccc(Cl)c(Cl)c2)c2nc3ccccc3nc12`, the “activation” value was inactive: 4.55%. On the same count and under the same terms, with `COc1cccc(CSc2nc3n(n2)C(c2cccs2)C(C(=O)Nc2ccccc2C)=C(C)N3)c1` (centres undefined) the figure was inactive: -5.83%; with `COc1cn(CC(=O)Nc2ccc(F)cc2)c(CN2CCCCC2)cc1=O`, inactive: -5.29%; with `CCN1CCN(c2cc(C)c3cc(NC(=O)c4cccc(C(F)(F)F)c4)ccc3n2)CC1`, inactive: 0.41%. Still for that read-out and setting: the value for `Cc1ccc(NC(=O)Cn2c(=O)n(-c3ccc(Cl)c(Cl)c3)c(=O)c3c(C)c(C)sc32)c(C)c1` was inactive: -12.6%.

In the case of `Cc1cccc(Cn2c(CN3CCC(C(=O)NCc4cccnc4)CC3)cc3ccccc32)c1`, the “activation” value is inactive: -4.79%. On the same count and under the same terms, the value for `CC1=C(C(=O)Nc2ccccc2C)C(c2ccncc2)n2nc(SCc3ccccc3)nc2N1` (centres undefined) was inactive: -12.4%. Same read-out and setting: the value for `Cc1ccc(OCCn2cc(C(=O)C3CCCCC3)c3ccccc32)cc1` was inactive: -2.29%; that for `CCOC(=O)c1ccc(NC(=O)CC2C(=O)N(c3cccc(OC)c3)C(=O)N2C2CCCCC2)cc1` (centres undefined) was inactive: -19.7%.

Consider `Cc1ccc2[nH]c3c(=O)n(CC(=O)NCc4ccco4)ncc3c2c1`, for which the “activation” value is inactive: -11.1%. In the case of `CCCCCCCCCCCCCCNCCO`, the “activation” value is inactive: -17.4%. Same read-out and setting: the value for `Cc1nn(CC(=O)NCc2ccc(F)cc2)c2ccccc12` was inactive: -7.97%; that for `CCCN(Cc1cccs1)C(=O)Nc1cc(Cl)ccc1C` was inactive: -7.69%.

Take `COc1ccc(Cl)cc1NC(=O)Cn1ncc2c3ccccc3n(C)c2c1=O`: the “activation” value was inactive: 3.26%. On the same count and under the same terms, with `CCOC(=O)c1ccc2nc(C)cc(Nc3cccc(C(=O)O)c3)c2c1` the figure was inactive: -4.61%; with `CCOC(=O)c1c(C)n(-c2ccccc2)c2ccc(OC(=O)c3ccccc3NC(=O)C(C)C)cc12`, inactive: -3.27%; with `CC(=O)Nc1ccc(NC(=O)C2CCN(c3c(NC(C)=O)c(C)nn3-c3ccccc3)CC2)cc1`, inactive: -3.5%. Same read-out and setting: the value for `CCOC(=O)c1cccc(NC(=O)CCCn2nc(C)c3c(C)n(-c4ccccc4)nc3c2=O)c1` was inactive: -4.72%; that for `O=C(NCc1ccc(Cl)cc1)c1ccc2c(Cl)c3c(nc2c1)CCCC3` was inactive: -27.6%; that for `Cc1ccc(OCCSc2nnc(-c3cccs3)o2)cc1Cl` was inactive: -1.98%. The same measure, in the same setting: the value for `Cc1ccc(Cn2c(CN3CCC(C(=O)NCc4ccccc4C)CC3)cc3ccccc32)cc1` was inactive: -4.23%.

With `Cc1ccc(CNc2nc(-c3ccco3)nn2S(C)(=O)=O)cc1`, the “activation” value was inactive: -26.3%. Same read-out and setting: with `CCOc1ccccc1CNC(=O)CCn1c(=O)c2cccn2c2ccc(F)cc21` the figure was inactive: -12.7%. Regarding `COc1ccc2c(c1)c(=O)c(C(=O)c1ccc(C)c(C)c1)cn2CC(=O)Nc1ccc2c(c1)OCCO2`, the “activation” value was inactive: -1.08%.

With `COc1ccc(NC(=O)C2COc3ccccc3C2)cc1Cl` (centres undefined), the “activation” value was inactive: -21.5%.

On to `COc1ccc(-c2nc3cc(C(C)C)ccc3o2)cc1NC(=O)c1ccccc1[N+](=O)[O-]`, for which the “activation” value was inactive: -9.33%. Still for that read-out and setting: with `Cn1c(SCC(=O)Nc2ccccc2)nnc1-c1ccccc1` the figure was inactive: -10.8%; with `COc1ccc(Cl)cc1-n1nnc(-c2nc(-c3ccccc3)no2)c1C`, inactive: -21.1%; with `O=C1OC2(c3ccc(O)cc3Oc3cc(O)ccc32)c2ccccc21`, inactive: 11.1%. Still for that read-out and setting: with `Cc1nnc(N2C(=O)c3oc4ccccc4c(=O)c3C2c2ccc(C(C)(C)C)cc2)s1` (centres undefined) the figure was inactive: -5.06%; with `COc1ccc(C)cc1NC(=O)CN1c2ccccc2S(=O)(=O)c2ccccc21`, inactive: -13%. On the same count and under the same terms, the value for `COc1ccc(C(=O)CSc2nc(C)cc(C)c2C(=O)Nc2ccccc2C)cc1` was inactive: -12.5%; that for `CCc1ccc(NC(=O)CSc2nc3ccccc3nc2Cc2ccc(C)cc2)cc1` was inactive: -2.67%; that for `Cc1ccc(NC(=O)CCOc2ccccc2)cc1` was inactive: -21.9%.

In the case of `Cc1ccc2c(n1)Oc1ccc(C(C)C(=O)OCC(=O)N(C)C)cc1C2` (centres undefined), the Potency result was “inactive”. On to `Cc1nc(N2CCCC2)ncc1C(=O)NCc1cccc(Cl)c1`, for which the “activation” value is inactive: -6.02%. Still for that read-out and setting: the value for `COC(=O)c1ccc(NC(=O)CCS(=O)(=O)c2ccc(Br)s2)cc1` was inactive: -19.2%; that for `COc1ccc(NC(=O)c2cccc(N3CCCS3(=O)=O)c2)cc1OC` was inactive: -14%.

Regarding `CC(C)Cc1ccc(S(=O)(=O)N2CCC(c3ccncc3)CC2)cc1`, the “activation” value was inactive: -12.5%.

Take `COc1ccccc1N1CCN(C(=O)Cn2c(=O)n3nc(-c4ccc(C)cc4)nc3c3ccccc32)CC1`: the “activation” value was inactive: -20.1%.

With `COc1ccccc1CNC(=O)c1ccc(CS(=O)(=O)c2c(Cl)cccc2Cl)o1`, the “activation” value is inactive: -7.55%. Turning to `Cc1cccc(OCCSc2nc3ccccc3n2CC(=O)N2CCOCC2)c1`, the “activation” value is inactive: -5.91%.

Consider `CC(=O)OCC1=C(C(=O)O)N2C(=O)[C@@H](NC(=O)CSc3ccncc3)[C@H]2SC1`, for which the “activation” value was inactive: -22.2%. The same measure, in the same setting: the value for `COc1cccc(-c2nc(S(=O)(=O)c3ccccc3)c(N3CCCCC3)o2)c1` was inactive: -13%.
